Results published in PubChem BioAssay AID1963576 (National Center for Advancing Translational Sciences (NCATS), 2024).
The campaign covered roughly 46,000 compounds. About 60 (0.1%) were called active. Roughly 3% stayed inconclusive and do not appear here. The call rests on the fitted dose curve; in most records, active means well fitted inhibition curve with a large enough effect; inconclusive means small, poorly fitted or top-dose-only effect; inactive means no such curve, though single readings can be large or run the other way. The list shows a part of the results.

experiment: Primary qHTS assay for Inhibitors of ovarian cancer metastasis using an organotypic tumor microenvironment (TME) model.; further: nearly all actives have a fitted effect of over 65% in size;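 on activity change, negative = inhibition: plate controls were DMSO wells for no effect and tomatine positive control wells for full effect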; conditions: SKOV3ip1-GFP adhesion/invasion on 3D omental model, fluorescence; series mostly up to 45.8 µM; activity change, negative = inhibition: at the top concentration
Outline: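 Adhesion/invasion was scored as fixed GFP-labeled SKOV3ip1 cell counts (488/509 nm), normalized to DMSO and tomatine controls. Cancer cells in serum-free medium, with four compound doses (0.36-46 umol/L), sat 2 hr at RT then 16 hr at 37 C on a 48 hr fibroblast/mesothelial/ECM culture.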

Activity change, negative = inhibition, inactive:
CC(=O)C1=C(c2ccc(Br)cc2)N(C(C)=O)n2c(nnc2C2CCCCC2)S1 8.25%, Cc1ccc2scc(N3CCCCC3)c(=O)c2c1 4.12%, CCOC(=O)c1cc(-c2ccccc2)n(CCC(=O)Nc2cc(C)cc(C)c2)c1C -1.39%, COc1ccc(NC(=O)CC2C(=O)N(c3ccc(F)cc3)C(=O)N2CCc2sccc2C)cc1 (configuration not stated) 1.02%, Nc1ccc2nc(-c3ccc(O)cc3)sc2c1 0.439%, CC(C)C(=O)Nc1ncc(-c2cc(C(F)F)nn2-c2c(Cl)cccc2Cl)s1 -24.3%, CC(=O)N1CCC2(CC1)OC(=O)C(C)=C2C(=O)NCc1cccc(Cl)c1 5.12%, Cc1ccc2ncc(C(=O)NC(C)c3ccccc3)c(=O)n2c1 (configuration not stated) -0.713%, Cc1ccc(CNC(=O)c2cnc3c(-c4ccccc4)c(C)nn3c2C)o1 9.1%, Cc1ccc(C(=O)Nc2nnc(S(=O)(=O)N3CCN(c4ccc(F)cc4)CC3)s2)cc1 -13.3%, Cc1ccc(CN2CCCn3nc(C(=O)NCc4cc(C)ccc4C)cc3C2=O)cc1 -2.89%, COc1cc(NC(=O)NCC2CCN(Cc3ccc(C)cc3)CC2)cc(OC)c1OC -25.1%, Cc1ccc(N2C(=O)CS(=O)(=O)C23C(=O)N(C)c2ccccc23)cc1F (configuration not stated) -8.96%, Cc1ccc(N2CCN(C(=O)c3c(C)oc4ncnc(N5CCOCC5)c34)CC2)c(C)c1 4.7%, CCOc1ccc(NC(=O)CSc2nnc(-c3ccncc3)n2-c2ccccc2)cc1 7.11%, COCCNC(=O)CSc1nc2cc3c(cc2c(=O)n1Cc1ccc(C(=O)NCCc2ccc(OC)c(OC)c2)cc1)OCO3 -2.4%, O=C(NCCc1ccccc1)C(=O)NCC(c1ccco1)S(=O)(=O)c1ccccc1 (configuration not stated) -7.14%, COCCCNC(=O)CCC(=O)NNc1nc2ccccc2c2nc(-c3ccccc3)nn12 14.8%, CCc1cccc(NC(=O)CSc2ncc3c(n2)-c2ccccc2N(CC)S3(=O)=O)c1 -12.5%, COc1ccc(CNC(=O)c2ccc(CSc3nc4ccncc4n3Cc3ccccc3F)cc2)cc1 6.02%, Cc1ccc(C)c(-n2cc(-c3ccccc3)nc2SCC(=O)Nc2ccccc2)c1 3.16%, Cc1nc(N2CCCC2)ncc1C(=O)N1CCN(c2ccc(Cl)cc2)CC1 -7.96%, COc1ccc(NC(=O)Cn2c(=O)n(Cc3ccccc3)c(=O)c3oc4ccccc4c32)cc1Cl -9.41%, CCOc1ccc(Nc2ncnc3c2cnn3-c2ccc(F)cc2)cc1 3.22%, CCOC(=O)c1ccccc1NC(=O)Cn1c(=O)n(CCCC(=O)NCc2ccc3c(c2)OCO3)c(=O)c2ccccc21 7.07%, O=C(CSc1nc2c([nH]c3ccccc32)c(=O)n1-c1ccc(Cl)cc1)N1CCCCCC1 16.8%, COc1cccc(-c2csc(-c3c(N)c(C(=O)c4ccccc4)n4ccccc34)n2)c1 -3.59%, Cc1ccnc(NC(=O)c2c(C)oc3ncn(CC(C)C)c(=O)c23)c1 10.2%, COc1ccc(-c2cc3nc(C)c(CCC(=O)Nc4cccc(C(F)(F)F)c4)c(C)n3n2)c(OC)c1 23.7%, CCc1ccc(-c2nc(CN3CCCC(C(=O)NCc4ccc(C)cc4)C3)c(C)o2)cc1 (configuration not stated) 3.44%, Cc1ccc(C(=O)Nc2ccccc2C(=O)O)cc1S(=O)(=O)N1CCCCCC1 1.69%, CCCCCOc1ccc(NC(=O)Cc2csc(C)n2)cc1 -6.17%, O=C(Nc1sc2c(c1C(=O)Nc1ccc(Cl)cc1)CCCC2)c1cccs1 2.6%, Cc1cc(C)c(NC(=O)CN2c3ccccc3S(=O)(=O)c3ccccc32)c(C)c1 0.76%, Clc1ccc2nsnc2c1NC1=NCCN1 -0.564%, COCC(C)NC(=O)c1cnn2c(C(F)F)cc(-c3ccccc3)nc12 (configuration not stated) 4.24%, COc1cc(OC)c(NC(=O)C(NS(=O)(=O)c2cccc3nsnc23)c2ccccc2)cc1Cl (configuration not stated) 1.46%, COC(=O)C1=CO[C@@H](O)[C@@H]2C(CO)=CC[C@@H]12 -5.62%, CCOc1ccc(NC(=O)c2cnn(-c3ccc(C)c(Cl)c3)c2C2CCNCC2)cc1 -3.58%, Cc1ccc(CN2COc3cc(C)c4c(oc(=O)c5ccccc54)c3C2)cc1 9.71%, Cc1cc(Nc2cc(N3CCN(C)CC3)nc(Sc3ccc(NC(=O)C4CC4)cc3)n2)n[nH]1 -26.5%, COc1ccc(-c2[nH]c(-c3ccccc3)nc2SCC(=O)Nc2ccc3c(c2)OCCO3)cc1 -11.9%, CCOc1cc(C2NC(=O)c3c(sc4c3CCN(C)C4)N2)ccc1OC(=O)c1ccccc1Cl (configuration not stated) -2.56%, Cc1ccc2[nH]c(C(=O)Nc3ccccc3)cc2c1 11.9%

outcome, inactive:
O=C(Cn1c(=O)oc2cc(S(=O)(=O)NCc3ccccc3)ccc21)NCc1ccccc1Cl, COCCCNC(=O)c1cnn(-c2ccc(F)cc2F)c1C1CCNCC1, Cc1ccc2nc(NC(=O)c3nc(SCc4ccccc4C)ncc3Cl)sc2c1, Cc1ccc(N2CCN(C(=O)C3CCN(c4ncnc5c4nc4n5CCCCC4)CC3)CC2)c(C)c1, CN(Cc1ccccc1)C(=O)C1CCC(CNS(=O)(=O)c2ccc3c(c2)CCCC(=O)N3)CC1 (configuration not stated), CCc1nn(CC(=O)NCCCc2ccccc2)c(=O)c2cc3c(OC)cccc3n12, O=C(O)CCc1nnc2cnc3ccccc3n12, O=[N+]([O-])c1cc(-c2nc(-c3ccccn3)no2)ccc1NCc1ccccc1, COc1ccc(NC(=O)C(C)n2nc(-c3cc(C)ccc3C)c3c(c2=O)CCCC3)cc1 (configuration not stated), Cc1nc2c(C(=O)NCc3ccccc3Cl)cnn2c(C)c1Cc1ccccc1, CCOC(=O)C(=O)Nc1nnc2n1CCS2, Cc1ccc(CNC(=O)Nc2cn(CC(C)C)c(=O)c3ccccc23)cc1, CCn1cc2nc(SCC(=O)Nc3ccccc3F)n(Cc3ccc(C)cc3)c(=O)c2n1, CC(=O)c1ccc(NC(=O)c2cc(-c3ccc4c(c3)OCO4)on2)cc1, Cc1nnc(SCc2ccccc2Cl)c2cc3sccc3n12, O=C(NCCCN1CCN(c2ccccc2F)CC1)c1cc2c(Cl)nc3ccccc3c2s1, CN(C(=O)Cn1cc(S(=O)(=O)N2CCN(c3ccccc3F)CC2)c2ccccc2c1=O)c1ccc(Cl)cc1, CCOC(=O)c1cc(-c2ccccc2)n(CC(=O)NC2CCC(C)CC2)c1C (configuration not stated)
